# Results taken from the supplement of paper PMC8728848.
# The other results are listed elsewhere or left out.
# B1: Arath Fbox LD (Arabidopsis thaliana) (protein)
# chain: EFSVWLEKASGKRCLMLSAMNLSIIWGDNPQYWQWIPIPESRFEKVAKLRDVCWFEIRGRTNTRVLSPRTRYSAYIVFKGVDKCYGFQNVAIEAAVGVVGQEPSRRLICFSEAIRRGRRNVVKPKQREDGWMEIELGEFFNDGGIMDNDEIEMSALETKQLNRKCGLIIQGIEIRPAKILAAASFLEQKLISEEDLNSAVDHHHHHH
# What was measured:
# Test in all cases: glycan array binding signal (z-score within array); higher = stronger binding
# Details in all cases: glycan notation: IUPAC condensed, linker removed
# [1] = target: GlcNAc(b1-2)Gal(b1-3)GalNAc
# Outline: (§1)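 Glycan array data were curated from 3228 arrays in the Consortium for Functional Glycomics database and kept only where the protein sequence was available. Glycan names were converted to IUPAC-condensed notation, and columns mapping to the same glycan were averaged. The binding signal is a within-array Z-score, averaged across arrays of the same protein sequence at different concentrations or buffers and across linkers. Negative Z-scores can be read as non-binding.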
# [2] = target: GlcNAc(b1-2)Man(a1-3)[GlcNAc(b1-2)Man(a1-6)]Man(b1-4)GlcNAc(b1-4)GlcNAc
# Outline: as §1
# [3] = target: GlcNAc(b1-2)Man(a1-3)[GlcNAc(b1-2)Man(a1-6)]Man(b1-4)GlcNAc(b1-4)[Fuc(a1-6)]GlcNAc
# Outline: as §1
# [4] = target: GlcNAc(b1-2)Man(a1-3)[GlcNAc(b1-4)][GlcNAc(b1-2)Man(a1-6)]Man(b1-4)GlcNAc(b1-4)GlcNAc
# Outline: as §1
# [5] = target: GlcNAc(b1-2)Man(a1-3)[GlcNAc(b1-4)][GlcNAc(b1-2)Man(a1-6)]Man(b1-4)GlcNAc(b1-4)[Fuc(a1-6)]GlcNAc
# Outline: as §1
# [6] = target: GlcNAc(b1-2)[GlcNAc(b1-4)]Man(a1-3)[GlcNAc(b1-2)Man(a1-6)]Man(b1-4)GlcNAc(b1-4)GlcNAc
# Outline: as §1
# [7] = target: GlcNAc(b1-2)[GlcNAc(b1-4)]Man(a1-3)[GlcNAc(b1-4)][GlcNAc(b1-2)Man(a1-6)]Man(b1-4)GlcNAc(b1-4)GlcNAc
# Outline: as §1
# [8] = target: GlcNAc(b1-2)[GlcNAc(b1-4)]Man(a1-3)[GlcNAc(b1-4)][GlcNAc(b1-2)[GlcNAc(b1-6)]Man(a1-6)]Man(b1-4)GlcNAc(b1-4)GlcNAc
# Outline: as §1
# [9] = target: GlcNAc(b1-2)[GlcNAc(b1-4)]Man(a1-3)[GlcNAc(b1-4)][GlcNAc(b1-2)[GlcNAc(b1-6)]Man(a1-6)]Man(b1-4)GlcNAc(b1-4)[Fuc(a1-6)]GlcNAc
# Outline: as §1
# [10] = target: GlcNAc(b1-2)[GlcNAc(b1-6)]Man(a1-6)[GlcNAc(b1-2)Man(a1-3)]Man(b1-4)GlcNAc(b1-4)GlcNAc
# Outline: as §1
# [11] = target: GlcNAc(b1-2)[GlcNAc(b1-6)]Man(a1-6)[GlcNAc(b1-2)Man(a1-3)]Man(b1-4)GlcNAc(b1-4)[Fuc(a1-6)]GlcNAc
# Outline: as §1
# [12] = target: GlcNAc(b1-2)[GlcNAc(b1-6)]Man(a1-6)[GlcNAc(b1-4)][GlcNAc(b1-2)Man(a1-3)]Man(b1-4)GlcNAc(b1-4)GlcNAc
# Outline: as §1
# GlcNAc(b1-3)Fuc = target: GlcNAc(b1-3)Fuc
# Outline: as §1
# GlcNAc(b1-3)Gal = target: GlcNAc(b1-3)Gal
# Outline: as §1
# [13] = target: GlcNAc(b1-3)Gal(b1-3)GalNAc
# Outline: as §1
# GlcNAc(b1-3)Gal(b1-4)Glc = target: GlcNAc(b1-3)Gal(b1-4)Glc
# Outline: as §1
# [14] = target: GlcNAc(b1-3)Gal(b1-4)GlcNAc
# Outline: as §1
# [15] = target: GlcNAc(b1-3)Gal(b1-4)GlcNAc(b1-2)Man(a1-3)[GlcNAc(b1-3)Gal(b1-4)GlcNAc(b1-2)Man(a1-6)]Man(b1-4)GlcNAc(b1-4)GlcNAc
# Outline: as §1
# [16] = target: GlcNAc(b1-3)Gal(b1-4)GlcNAc(b1-2)Man(a1-3)[GlcNAc(b1-3)Gal(b1-4)GlcNAc(b1-2)Man(a1-6)]Man(b1-4)GlcNAc(b1-4)[Fuc(a1-6)]GlcNAc
# Outline: as §1
# [17] = target: GlcNAc(b1-3)Gal(b1-4)GlcNAc(b1-2)[GlcNAc(b1-3)Gal(b1-4)GlcNAc(b1-6)]Man(a1-6)[GlcNAc(b1-3)Gal(b1-4)GlcNAc(b1-2)Man(a1-3)]Man(b1-4)GlcNAc(b1-4)GlcNAc
# Outline: as §1
# [18] = target: GlcNAc(b1-3)Gal(b1-4)GlcNAc(b1-3)Gal(b1-4)GlcNAc
# Outline: as §1
# [19] = target: GlcNAc(b1-3)Gal(b1-4)GlcNAc(b1-3)Gal(b1-4)GlcNAc(b1-2)Man(a1-3)[GlcNAc(b1-3)Gal(b1-4)GlcNAc(b1-3)Gal(b1-4)GlcNAc(b1-2)Man(a1-6)]Man(b1-4)GlcNAc(b1-4)GlcNAc
# Outline: as §1
# [20] = target: GlcNAc(b1-3)Gal(b1-4)GlcNAc(b1-3)Gal(b1-4)GlcNAc(b1-2)Man(a1-3)[GlcNAc(b1-3)Gal(b1-4)GlcNAc(b1-3)Gal(b1-4)GlcNAc(b1-2)Man(a1-6)]Man(b1-4)GlcNAc(b1-4)[Fuc(a1-6)]GlcNAc
# Outline: as §1
# [21] = target: GlcNAc(b1-3)Gal(b1-4)GlcNAc(b1-3)Gal(b1-4)GlcNAc(b1-2)[GlcNAc(b1-3)Gal(b1-4)GlcNAc(b1-3)Gal(b1-4)GlcNAc(b1-6)]Man(a1-6)[GlcNAc(b1-3)Gal(b1-4)GlcNAc(b1-3)Gal(b1-4)GlcNAc(b1-2)Man(a1-3)]Man(b1-4)GlcNAc(b1-4)[Fuc(a1-6)]GlcNAc
# Outline: as §1
# [22] = target: GlcNAc(b1-3)Gal(b1-4)GlcNAc(b1-3)Gal(b1-4)GlcNAc(b1-3)Gal(b1-4)GlcNAc(b1-2)Man(a1-3)[GlcNAc(b1-3)Gal(b1-4)GlcNAc(b1-3)Gal(b1-4)GlcNAc(b1-3)Gal(b1-4)GlcNAc(b1-2)Man(a1-6)]Man(b1-4)GlcNAc(b1-4)GlcNAc
# Outline: as §1
# [23] = target: GlcNAc(b1-3)Gal(b1-4)GlcNAc(b1-3)Gal(b1-4)GlcNAc(b1-3)Gal(b1-4)GlcNAc(b1-2)Man(a1-3)[GlcNAc(b1-3)Gal(b1-4)GlcNAc(b1-3)Gal(b1-4)GlcNAc(b1-3)Gal(b1-4)GlcNAc(b1-2)Man(a1-6)]Man(b1-4)GlcNAc(b1-4)[Fuc(a1-6)]GlcNAc
# Outline: as §1
# [24] = target: GlcNAc(b1-3)Gal(b1-4)GlcNAc(b1-3)Gal(b1-4)GlcNAc(b1-3)Gal(b1-4)GlcNAc(b1-2)[GlcNAc(b1-3)Gal(b1-4)GlcNAc(b1-3)Gal(b1-4)GlcNAc(b1-3)Gal(b1-4)GlcNAc(b1-6)]Man(a1-6)[GlcNAc(b1-3)Gal(b1-4)GlcNAc(b1-3)Gal(b1-4)GlcNAc(b1-3)Gal(b1-4)GlcNAc(b1-2)Man(a1-3)]Man(b1-4)GlcNAc(b1-4)[Fuc(a1-6)]GlcNAc
# Outline: as §1
# [25] = target: GlcNAc(b1-3)Gal(b1-4)GlcNAc(b1-3)Gal(b1-4)GlcNAc(b1-3)Gal(b1-4)GlcNAc(b1-3)Gal(b1-4)GlcNAc(b1-2)Man(a1-3)[GlcNAc(b1-3)Gal(b1-4)GlcNAc(b1-3)Gal(b1-4)GlcNAc(b1-3)Gal(b1-4)GlcNAc(b1-3)Gal(b1-4)GlcNAc(b1-2)Man(a1-6)]Man(b1-4)GlcNAc(b1-4)GlcNAc
# Outline: as §1
# [26] = target: GlcNAc(b1-3)Gal(b1-4)GlcNAc(b1-3)Gal(b1-4)GlcNAc(b1-3)Gal(b1-4)GlcNAc(b1-3)Gal(b1-4)GlcNAc(b1-2)Man(a1-3)[GlcNAc(b1-3)Gal(b1-4)GlcNAc(b1-3)Gal(b1-4)GlcNAc(b1-3)Gal(b1-4)GlcNAc(b1-3)Gal(b1-4)GlcNAc(b1-2)Man(a1-6)]Man(b1-4)GlcNAc(b1-4)[Fuc(a1-6)]GlcNAc
# Outline: as §1
# [27] = target: GlcNAc(b1-3)Gal(b1-4)GlcNAc(b1-3)Gal(b1-4)GlcNAc(b1-3)Gal(b1-4)GlcNAc(b1-3)Gal(b1-4)GlcNAc(b1-2)[GlcNAc(b1-3)Gal(b1-4)GlcNAc(b1-3)Gal(b1-4)GlcNAc(b1-3)Gal(b1-4)GlcNAc(b1-3)Gal(b1-4)GlcNAc(b1-6)]Man(a1-6)[GlcNAc(b1-3)Gal(b1-4)GlcNAc(b1-3)Gal(b1-4)GlcNAc(b1-3)Gal(b1-4)GlcNAc(b1-3)Gal(b1-4)GlcNAc(b1-2)Man(a1-3)]Man(b1-4)GlcNAc(b1-4)[Fuc(a1-6)]GlcNAc
# Outline: as §1
# [28] = target: GlcNAc(b1-3)Gal(b1-4)GlcNAc(b1-3)Gal(b1-4)GlcNAc(b1-3)GalNAc
# Outline: as §1
# [29] = target: GlcNAc(b1-3)Gal(b1-4)GlcNAc(b1-3)GalNAc
# Outline: as §1
# [30] = target: GlcNAc(b1-3)Gal(b1-4)GlcNAc(b1-3)[GlcNAc(b1-3)Gal(b1-4)GlcNAc(b1-3)]GalNAc
# Outline: as §1
# [31] = target: GlcNAc(b1-3)Gal(b1-4)GlcNAc(b1-6)[Gal(b1-3)]GalNAc
# Outline: as §1
# [32] = target: GlcNAc(b1-3)Gal(b1-4)GlcNAc(b1-6)[GlcNAc(b1-3)Gal(b1-3)]GalNAc
# Outline: as §1
# [33] = target: GlcNAc(b1-3)Gal(b1-4)GlcNAc(b1-6)[GlcNAc(b1-3)]Gal(b1-4)GlcNAc
# Outline: as §1
# GlcNAc(b1-3)GalNAc = target: GlcNAc(b1-3)GalNAc
# Outline: as §1
# GlcNAc(b1-3)Man = target: GlcNAc(b1-3)Man
# Outline: as §1
# [34] = target: GlcNAc(b1-3)[GlcNAc(b1-4)][GlcNAc(b1-6)]GlcNAc
# Outline: as §1
# [35] = target: GlcNAc(b1-3)[GlcNAc(b1-6)]Gal(b1-4)GlcNAc
# Outline: as §1
# [36] = target: GlcNAc(b1-3)[GlcNAc(b1-6)]GalNAc
# Outline: as §1
# [37] = target: GlcNAc(b1-4)Gal(b1-4)GlcNAc
# Outline: as §1
# GlcNAc(b1-4)GlcNAc = target: GlcNAc(b1-4)GlcNAc
# Outline: as §1
# [38] = target: GlcNAc(b1-4)GlcNAc(b1-4)GlcNAc
# Outline: as §1
# [39] = target: GlcNAc(b1-4)GlcNAc(b1-4)GlcNAc(b1-4)GlcNAc(b1-4)GlcNAc
# Outline: as §1
binder,measurement,setting,value
B1,glycan array binding signal (z-score),[1],-0.441
same,glycan array binding signal (z-score),[2],-0.535
same,glycan array binding signal (z-score),[3],-0.253
same,glycan array binding signal (z-score),[4],-0.61
same,glycan array binding signal (z-score),[5],-0.507
same,glycan array binding signal (z-score),[6],-0.593
same,glycan array binding signal (z-score),[7],-0.586
same,glycan array binding signal (z-score),[8],-0.532
same,glycan array binding signal (z-score),[9],-0.536
same,glycan array binding signal (z-score),[10],-0.517
same,glycan array binding signal (z-score),[11],-0.521
same,glycan array binding signal (z-score),[12],-0.433
same,glycan array binding signal (z-score),GlcNAc(b1-3)Fuc,-0.558
same,glycan array binding signal (z-score),GlcNAc(b1-3)Gal,-0.425
same,glycan array binding signal (z-score),[13],-0.519
same,glycan array binding signal (z-score),GlcNAc(b1-3)Gal(b1-4)Glc,0.513
same,glycan array binding signal (z-score),[14],-0.342
same,glycan array binding signal (z-score),[15],-0.512
same,glycan array binding signal (z-score),[16],-0.468
same,glycan array binding signal (z-score),[17],0.893
same,glycan array binding signal (z-score),[18],-0.515
same,glycan array binding signal (z-score),[19],-0.123
same,glycan array binding signal (z-score),[20],-0.373
same,glycan array binding signal (z-score),[21],0.126
same,glycan array binding signal (z-score),[22],1.11
same,glycan array binding signal (z-score),[23],-0.485
same,glycan array binding signal (z-score),[24],0.244
same,glycan array binding signal (z-score),[25],-0.541
same,glycan array binding signal (z-score),[26],-0.57
same,glycan array binding signal (z-score),[27],-0.033
same,glycan array binding signal (z-score),[28],-0.049
same,glycan array binding signal (z-score),[29],-0.513
same,glycan array binding signal (z-score),[30],-0.565
same,glycan array binding signal (z-score),[31],-0.61
same,glycan array binding signal (z-score),[32],-0.52
same,glycan array binding signal (z-score),[33],-0.444
same,glycan array binding signal (z-score),GlcNAc(b1-3)GalNAc,-0.017
same,glycan array binding signal (z-score),GlcNAc(b1-3)Man,-0.311
same,glycan array binding signal (z-score),[34],-0.289
same,glycan array binding signal (z-score),[35],0.839
same,glycan array binding signal (z-score),[36],0.261
same,glycan array binding signal (z-score),[37],-0.245
same,glycan array binding signal (z-score),GlcNAc(b1-4)GlcNAc,-0.462
same,glycan array binding signal (z-score),[38],-0.45
same,glycan array binding signal (z-score),[39],-0.043
